Measured values taken from PMC6957217.
Results are given in words; binding and its absence hold for the method and conditions named. Some entries that bind do so weakly or less than the wild type.

Chains of the proteins cited; added tags and fusions are not shown. Lines headed by an entry give the natural chain unless they say otherwise; changes in a name come on top. Residues count along the entry.
UniProt P02769, residues 25-607: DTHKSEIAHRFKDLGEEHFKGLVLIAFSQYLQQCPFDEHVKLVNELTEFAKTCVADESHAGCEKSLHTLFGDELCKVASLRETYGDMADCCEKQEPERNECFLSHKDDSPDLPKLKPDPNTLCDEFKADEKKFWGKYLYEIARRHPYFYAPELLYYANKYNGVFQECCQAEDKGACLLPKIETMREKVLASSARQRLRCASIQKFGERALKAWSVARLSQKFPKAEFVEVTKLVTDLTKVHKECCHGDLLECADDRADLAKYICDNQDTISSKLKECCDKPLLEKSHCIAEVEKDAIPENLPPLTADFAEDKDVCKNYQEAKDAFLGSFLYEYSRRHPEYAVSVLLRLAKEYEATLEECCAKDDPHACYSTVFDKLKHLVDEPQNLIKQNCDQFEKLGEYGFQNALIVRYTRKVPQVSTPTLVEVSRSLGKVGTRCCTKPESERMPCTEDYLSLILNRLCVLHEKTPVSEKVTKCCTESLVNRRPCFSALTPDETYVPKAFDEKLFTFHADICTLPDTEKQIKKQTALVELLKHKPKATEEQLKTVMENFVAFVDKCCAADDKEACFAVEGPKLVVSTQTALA
UniProt P03744: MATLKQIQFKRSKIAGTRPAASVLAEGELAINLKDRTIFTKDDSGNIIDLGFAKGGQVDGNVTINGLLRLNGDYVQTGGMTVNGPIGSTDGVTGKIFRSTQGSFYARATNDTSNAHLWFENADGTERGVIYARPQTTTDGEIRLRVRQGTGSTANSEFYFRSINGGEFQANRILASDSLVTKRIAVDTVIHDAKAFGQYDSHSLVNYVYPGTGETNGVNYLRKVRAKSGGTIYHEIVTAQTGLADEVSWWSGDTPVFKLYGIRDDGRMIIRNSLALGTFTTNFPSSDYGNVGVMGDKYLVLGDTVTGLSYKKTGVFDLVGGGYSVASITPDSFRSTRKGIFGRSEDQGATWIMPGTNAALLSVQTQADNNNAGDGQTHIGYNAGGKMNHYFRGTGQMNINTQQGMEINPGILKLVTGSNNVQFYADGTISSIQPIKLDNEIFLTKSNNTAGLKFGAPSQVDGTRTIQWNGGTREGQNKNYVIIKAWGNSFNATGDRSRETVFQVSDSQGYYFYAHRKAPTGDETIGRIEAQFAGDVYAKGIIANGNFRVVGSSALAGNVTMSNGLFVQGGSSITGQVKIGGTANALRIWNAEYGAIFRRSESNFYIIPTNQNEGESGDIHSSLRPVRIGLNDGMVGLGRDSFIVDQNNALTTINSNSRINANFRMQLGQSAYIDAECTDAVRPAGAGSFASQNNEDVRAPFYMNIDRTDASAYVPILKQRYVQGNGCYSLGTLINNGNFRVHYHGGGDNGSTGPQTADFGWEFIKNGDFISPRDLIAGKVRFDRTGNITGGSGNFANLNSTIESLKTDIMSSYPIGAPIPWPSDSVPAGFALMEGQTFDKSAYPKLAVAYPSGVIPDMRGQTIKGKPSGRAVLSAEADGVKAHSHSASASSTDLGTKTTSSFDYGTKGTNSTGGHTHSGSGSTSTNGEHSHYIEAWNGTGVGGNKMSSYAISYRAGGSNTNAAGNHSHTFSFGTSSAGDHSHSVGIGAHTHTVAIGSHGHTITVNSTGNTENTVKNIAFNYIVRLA
Phage T4 LTF needle (gp37; amino acids 799–1026), wild type: residues 799-1026 of P03744

Experiments:
BSA = BSA (UniProt P02769); test: ELISA; gp37 trimers coated (100 ng/well) overnight at 4°C, casein block, OmpC added (various molar ratios; gp37:OmpC 1:1 for the mutants), 37°C 2 hr, PBS-T washes, bound OmpC detected with mouse anti-OmpC sera and HRP anti-mouse IgG; both purified
[1] = target: Phage T4 LTF needle (gp37; amino acids 799–1026), wild type (bacteriophage T4) (UniProt P03744); test: as above
[2] = target: gp37 needle (799–1026) G938A (bacteriophage T4) (UniProt P03744); test: as above
[3] = target: gp37 needle (799–1026) I933A (bacteriophage T4) (UniProt P03744); test: as above
[4] = target: gp37 needle (799–1026) N937A (bacteriophage T4) (UniProt P03744); test: as above
[5] = target: gp37 needle (799–1026) I951A (bacteriophage T4) (UniProt P03744); test: condition: OmpC added at a gp37:OmpC molar ratio of 1:1 (100 ng gp37/well); ELISA; gp37 trimers coated (100 ng/well) overnight at 4°C, casein block, OmpC added (various molar ratios; gp37:OmpC 1:1 for the mutants), 37°C 2 hr, PBS-T washes, bound OmpC detected with mouse anti-OmpC sera and HRP anti-mouse IgG; both purified
[6] = target: gp37 needle (799–1026) K945A (bacteriophage T4) (UniProt P03744); test: as above
[7] = target: gp37 needle (799–1026) Y953A (bacteriophage T4) (UniProt P03744); test: as above

- binding (BSA): no binding
- binding [1]: binds
- binding [2]: binds
- binding [3]: binds
- binding [4]: binds
- binding [5]: no binding
- binding [6]: no binding
- binding [7]: no binding
B1: recombinant OmpC trimer (outer membrane protein C) (protein, UniProt P06996 22-367)
chain: AEVYNKDGNKLDLYGKVDGLHYFSDNKDVDGDQTYMRLGFKGETQVTDQLTGYGQWEYQIQGNSAENENNSWTRVAFAGLKFQDVGSFDYGRNYGVVYDVTSWTDVLPEFGGDTYGSDNFMQQRGNGFATYRNTDFFGLVDGLNFAVQYQGKNGNPSGEGFTSGVTNNGRDALRQNGDGVGGSITYDYEGFGIGGAISSSKRTDAQNTAAYIGNGDRAETYTGGLKYDANNIYLAAQYTQTYNATRVGSLGWANKAQNFEAVAQYQFDFGLRPSLAYLQSKGKNLGRGYDDEDILKYVDVGATYYFNKNMSTYVDYKINLLDDNQFTRDAGINTDNIVALGLVYQF
